# Assay results: PubChem BioAssay AID894 (National Center for Advancing Translational Sciences (NCATS), 2007)
# About 6,500 (4.3%) of roughly 150,000 compounds were called active. This list was built around the results that the source calls inconclusive (neither active nor inactive); the mix of calls is not that of the screen. Calls follow the shape of the dose curve; as a rule, active = well fitted inhibition curve with a large enough effect (not every such curve was filed as active); inconclusive = small, poorly fitted or top-dose-only effect, or another doubt; inactive = no such curve, though single readings can be large or run the other way. Potencies of inconclusive entries are left out as doubtful fits.
# Target: 15-hydroxyprostaglandin dehydrogenase [NAD(+)] (Homo sapiens) (UniProt P15428)
# Chain of UniProt P15428 (P15428 whole entry, looked up): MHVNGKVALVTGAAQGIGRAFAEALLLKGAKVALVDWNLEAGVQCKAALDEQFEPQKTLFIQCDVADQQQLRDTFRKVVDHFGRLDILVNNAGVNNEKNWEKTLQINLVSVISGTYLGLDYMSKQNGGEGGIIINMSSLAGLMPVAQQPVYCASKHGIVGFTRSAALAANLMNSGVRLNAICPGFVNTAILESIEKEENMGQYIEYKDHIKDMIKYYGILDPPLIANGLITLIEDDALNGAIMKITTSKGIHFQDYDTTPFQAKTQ
# Experiment: qHTS Assay for Inhibitors of HPGD (15-Hydroxyprostaglandin Dehydrogenase)
# Details: purified HPGD, NADH fluorescence kinetic, PGE2 substrate; activity change, negative = inhibition: hits give low values
# In short: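 20 nM HPGD preincubated 15 min at room temperature with compound in 50 mM Tris-HCl pH 8, 0.01% Tween 20. Started with 1 mM NAD+ and 30 uM prostaglandin E2; NADH fluorescence (360/450 nm) read 5 times over 30-s intervals, last minus first.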
# % is scaled to controls: 0 for no effect and ±100 for the full control effect; potency is read from the fitted curve at half-maximal effect; tags tell the direction and shape of the fitted curve.
SMILES,Potency,"activity change, negative = inhibition"
Cc1ccccc1S(=O)(=O)Nc1nc2ccccc2nc1N1CCc2ccccc2C1,"inconclusive [inhibitor, single point]",
COc1ccc(-c2cc(C(F)(F)F)n3nc(N)nc3n2)cc1,"inconclusive [inhibitor, partial curve]",
Cc1cc(C)c2c(=O)n(CC(=O)N3CCC(Cc4ccccc4)CC3)sc2n1,active: 4.47 µM,
Nc1c(S(=O)(=O)c2cccs2)c2nc3ccccc3nc2n1/N=C/c1cccc(O)c1,"inconclusive [inhibitor, partial curve]",
Fc1cccc(NCc2ccoc2)c1,"inconclusive [inhibitor, single point]",
CC1CCN(C(=S)c2ccc3c(c2)OCO3)CC1,active: 28.2 µM,
CCOC(=O)C1C(C)=C(Nc2ccc(OC)cc2)C(=O)N1c1ccc(OC)cc1 (stereo not given),"inconclusive [inhibitor, partial curve]",
CC1CCC/C(=C\Nc2ccccc2C(=O)O)C1=O (stereo not given),"inconclusive [inhibitor, partial curve]",
CCOCCCNS(=O)(=O)c1cc(Br)cc2c1N(C(=O)C1CC1)CC2,,inactive: -7.96%
CNC(=O)c1ccsc1NC(=O)c1sc2ccccc2c1Cl,"inconclusive [inhibitor, partial curve]",
Cc1cccc(NC(=O)c2cc(NC(=O)C3CC=CCC3C(=O)O)ccc2N2CCOCC2)c1 (stereo not given),,inactive: -3.4%
O=C(Cc1cccs1)N1CCN(c2ccccn2)CC1,"inconclusive [inhibitor, single point]",
Cc1ccc(-c2n[nH]c(=O)c3ccccc23)cc1S(=O)(=O)NCCN1CCOCC1,active: 12.6 µM,
N#CCSCC(=O)Nc1ccccc1,,inactive: -17%
Oc1cnc2ccccc2c1CN1CCOCC1,"inconclusive [inhibitor, single point]",
CCN(C(=O)C1CCN(S(=O)(=O)c2cccc3nonc23)CC1)c1ccccc1,"inconclusive [inhibitor, partial curve]",
N#Cc1nc(COc2ccccc2Cl)oc1NCc1cccnc1,"inconclusive [inhibitor, full curve]",
O=C(Nc1ccc2c(c1)oc1ccccc12)c1cccnc1,"inconclusive [inhibitor, single point]",
COC(=O)C(C)Sc1ccc2nnc(-c3cccc(F)c3)n2n1 (stereo not given),"inconclusive [inhibitor, partial curve]",
CC(=O)N1CC=C2C(C#N)=C(N)C(C#N)(C#N)C(C)C2C1 (stereo not given),"inconclusive [inhibitor, partial curve]",
COc1ccc(-c2cc3ccccc3oc2=O)cc1NC(=S)NC(=O)c1ccc2c(c1)OCCO2,"inconclusive [inhibitor, partial curve]",
CCc1c(C)c2ccc(O)c(CN(C)C)c2oc1=O,"inconclusive [inhibitor, full curve]",
CCN1CCCC1Cn1c(-c2ccccc2)nc2c(NCCOC)nc(C)nc21 (stereo not given),"inconclusive [inhibitor, partial curve]",

SMILES,Potency,"activity change, negative = inhibition"
O=C(O)c1ccc(C(=O)O)c(C(=O)Nc2ccc3c(c2)Cc2ccccc2-3)c1,active: 3.16 µM,
O=C(/C=C\c1ccccc1OC(=O)c1ccccc1F)c1cc2ccccc2o1,active: 28.2 µM,
COc1ccc2c(c1)CC/C(=C/c1ccco1)C2=O,"inconclusive [inhibitor, partial curve]",
CCC/C=C(\CCC)C(NC(=O)c1ccc(C(F)(F)F)cc1)c1ccccc1 (stereo not given),,inactive: -16.1%
COc1cccc(-c2nnc(NC(=O)c3ccc(Cl)s3)o2)c1,"inconclusive [inhibitor, partial curve]",
COCc1cc(C)nc(OCC(=O)N/N=C/c2cccc(OC)c2)c1C#N,"inconclusive [inhibitor, partial curve]",
C/C(=N\NC(=O)c1ccccc1O)C1C(=O)c2ccccc2C1=O,"inconclusive [inhibitor, partial curve]",
O=c1c(-c2cccs2)nc2cncnc2n1C1CC1,"inconclusive [inhibitor, full curve, poor fit]",
COCC(=O)Nc1nc2n(n1)C(c1ccc(Cl)cc1)CC(c1ccc(OC)cc1)N2 (stereo not given),"inconclusive [inhibitor, single point]",
CC1=CC(c2ccccc2)n2nc(N3C(=O)CCC3=O)nc2N1 (stereo not given),"inconclusive [inhibitor, partial curve]",
COc1cccc(NC(=O)c2ccccc2-c2nc(-c3ccc(F)cc3)no2)c1,"inconclusive [inhibitor, partial curve, poor fit]",
Cc1ccc2nc(-c3ccc(SCC(=O)N4CCc5ccccc54)nc3)[nH]c2c1,"inconclusive [inhibitor, partial curve]",
CCC1CCCCN1C(=O)CSc1nnc(-c2ccc(Cl)cc2)o1 (stereo not given),,inactive: -17.9%
CCn1c2ccccc2c2nnc(SCC(=O)NCCOC)nc21,active: 15.8 µM,
CCN(CC)S(=O)(=O)c1ccc(NC2c3ccccc3C(=O)N2c2ccc(C)cn2)cc1 (stereo not given),,inactive: -12.5%
Fc1cnc(N2CCc3ccccc32)nc1N1CCc2ccccc21,"inconclusive [inhibitor, partial curve]",
COCC(C)N=C1NN=C(c2c[nH]c3ccccc23)CS1 (stereo not given),,inactive: -25.2%
CC1CCCCN1C(=O)Cc1ccc(Cl)cc1 (stereo not given),active: 11.2 µM,
CCCCOc1ccc(OCCNS(=O)(=O)N(C)C)cc1,,inactive: -0.598%
COC(=O)c1sc(NC(=O)c2ccc(Cn3cc(Cl)cn3)o2)c(C#N)c1C,active: 15.8 µM,
COc1ccccc1[C@H]1C(c2ccccc2)=NN(c2ccccc2)[C@@H]1CO,"inconclusive [inhibitor, partial curve]",
COc1ccc(CCN2C(=O)C(Oc3ccccc3)C2c2ccc3c(c2)OCO3)cc1 (stereo not given),,inactive: -16.6%
